# Reference: PubChem BioAssay AID1508623 (National Center for Advancing Translational Sciences (NCATS), 2021)
# In all, about 48,000 compounds went through this assay and about 450 (0.94%) were called active. Inconclusive results (about 19%) are left out. The call rests on the fitted dose curve; in most records, active means well fitted inhibition curve with a large enough effect; inconclusive means small, poorly fitted or top-dose-only effect; inactive means no such curve, though single readings can be large or run the other way. The list shows a part of the results.
# Assay: Primary qHTS for Identification of Small Molecule Inhibitors of Huntingtin Promoter Activity; further: nearly all actives have a fitted effect of over 50% in size
# Conditions: HEK293 HTT promoter firefly luciferase reporter (activity 0% = vehicle and -100% = no light), 24 h; series mostly up to 57.5 µM; activity change, negative = inhibition: at the top concentration
# Summary of the method: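 Quantitative HTS used concentration series of up to 57.5 uM final on HEK293 luciferase reporter cells, 24 h at 37 degrees C. Readout was Dual-Glo firefly luminescence.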
# Potency means the concentration at half of the fitted maximal effect.
Compound,"activity change, negative = inhibition",Potency
CCc1cccc(C)c1NC(=O)CN1C(=O)c2c(c3ccccc3n2C)C1c1ccc(OC)cc1 (stereo not drawn),inactive: -27.1%,
CCCCN(C)C(=O)CN1C(=O)CCn2nc(-c3cn(C)c4ccccc34)cc21,inactive: -13.6%,
COc1cccc(CCNC(=O)c2c(O)nc3cc(C)ccn3c2=O)c1,inactive: -0.777%,
CCc1ccccc1NC(=O)C(NS(=O)(=O)c1ccc2c(c1)CCC(=O)N2)c1ccccc1 (stereo not drawn),inactive: -10%,
COCCCNC(=O)Nc1cc(C(=O)NCc2ccc(OC)cc2)ccc1N1CCCC1,inactive: 2.61%,
COC(=O)c1ccccc1NC(=O)c1ccc2c(c1)CCN2S(=O)(=O)c1ccc(C)cc1,inactive: -7.52%,
O=c1cc(-c2ccccc2)n2c(SCc3ccc([N+](=O)[O-])cc3)nnc2[nH]1,inactive: 8.5%,
CC1=C(C(N)=O)C(c2cccc(F)c2)n2nc(SCc3ccccc3)nc2N1 (stereo not drawn),inactive: -3.16%,
O=C(O)Cn1nc(N2CCN(c3ccc(F)cc3)CC2)ccc1=O,inactive: -2.41%,
COc1cc(OC)c(NC(=O)C2=C(C)C(=O)OC23CCCCC3)cc1Cl,inactive: -16.3%,
CCc1ccc(C(=O)c2cnc3ccc(C)cc3c2S(=O)(=O)c2ccc(OC)cc2)cc1,inactive: -43.5%,
COc1ccc2cc(CNc3ccc(C)cc3)c(=O)n(CC(=O)Nc3ccc(OC)c(Cl)c3)c2c1,inactive: -28%,
O=C(CCCn1c(=O)c2sccc2n(Cc2ccc(F)cc2Cl)c1=O)NCc1ccc2c(c1)OCO2,inactive: -0.658%,
NC(=Nc1ccccc1)Nc1ccccc1,inactive,
Cc1c(C(=O)N2CCCC2)oc2c1-c1nn(CC(=O)NCc3cccc(F)c3)cc1CC2,inactive: -20.1%,
Cc1ccccc1Nc1ncnc2c1c(-c1ccccc1)cn2-c1ccc(F)cc1,inactive: -24%,
O=C(CCc1nc2cccnc2n1Cc1ccccc1)NCc1cccc(Cl)c1,inactive: -16.9%,
Cc1ncc(COC(=O)C(C)C)c2cc(C(=O)Nc3ccccc3C(F)(F)F)c(=O)oc12,inactive: -2.6%,
CCN(CC)CCCNC(=O)CCc1c(C)n(CC)c2cc(-c3ccccc3OC)nn2c1=O,inactive: -9.05%,
CCCCn1c(CNC(=O)C23CC4CC(CC(C4)C2)C3)nnc1SCC(=O)Nc1ccccc1,inactive: 0.682%,
COC(=O)NNC(=O)C1CCC(C)CC1 (stereo not drawn),inactive: -17.9%,
Cc1cccc(N2C(=O)CS(=O)(=O)C23C(=O)N(C)c2ccccc23)c1 (stereo not drawn),inactive: -16.6%,
CCc1nc2ccc(C(=O)NCCc3ccc(OC)c(OC)c3)cc2nc1CC,inactive: 2.52%,
O=C(c1ccco1)N1CCN(c2nc3ccc(Cl)cc3s2)CC1,inactive: -23%,

Compound,"activity change, negative = inhibition",Potency
CCn1ccc2cc(S(=O)(=O)N3CCC(C(=O)NCCOC)CC3)ccc21,inactive: -3.33%,
CCN1CCN(CCCNC(=O)c2cc3c(s2)-c2c(C)cccc2OC3)CC1,inactive: -21.4%,
O=S(=O)(c1ccc(-c2cc(C(F)(F)F)on2)s1)N1CCN(c2cccc(Cl)c2)CC1,inactive: -3.17%,
CCCOC(=O)c1ccc(N)cc1,inactive: 5.95%,
Cc1nn2c(C(F)(F)F)cc(-c3ccc(OC(C)C)cc3)nc2c1C#N,inactive: -7.54%,
Cc1ccccc1OCC(=O)Nc1ccccc1C(=O)OCc1cc(=O)n2c(C)csc2n1,,active: 2240 nM
Cc1ccc2c(c1)c1c(n2CCc2ccc(C)nc2)CCN(C)C1,inactive: 6.44%,
COCCn1c(C)cc(O)c(C(c2ccccc2OC)N2CCCCC2)c1=O (stereo not drawn),inactive: -16.8%,
COc1ccc(C(CC(=O)Nc2ccc(OC)c(OC)c2)N2Cc3ccccc3C2=O)cc1 (stereo not drawn),inactive: -18.5%,
O=C(Nc1cccc(C2=NCCN2)c1)Nc1cccc(C2=NCCN2)c1,inactive: -3.17% [at 25.2 µM],
COc1cccc(CNC(=O)c2cc3c(=O)n(C)c4ccccc4c3n2C)c1,inactive: 3.22%,
CC(=O)OCC(=O)[C@@]1(O)CC[C@H]2[C@@H]3CCC4=CC(=O)C=C[C@]4(C)[C@H]3[C@@H](O)C[C@@]21C,inactive: -11.8%,
Cc1ccc2c(CC(=O)Nc3c(C(=O)Nc4cccc(Cl)c4)oc4ccccc34)coc2c1C,inactive: -3.75%,
Cc1ccccc1Cn1c(Oc2ccccc2F)nc2c1c(=O)n(C)c(=O)n2C,inactive: 8.46%,
Cc1ccc(NC(=O)Cn2c(=O)c(C(F)(F)F)nc3ccccc32)c(C)c1,inactive: 3.76%,
CCCCN(CC)CCNC(=O)Cn1c(=O)c2cccn2c2cccnc21,inactive: -8.4%,
Cc1ccc(Nc2cc(C(=O)NC3CCCC3)c3ccccc3n2)c(C)c1,inactive: -6.86%,
CN(Cc1ccccc1)C(=O)Cn1ncc2c3ccccc3n(Cc3cccc(Cl)c3)c2c1=O,inactive: -27%,
Cc1ccc(Cl)cc1Nc1sc(C(=O)c2ccccc2)c(N)c1S(=O)(=O)c1ccccc1,inactive: 5.35%,
CCc1cnc2c(c1SCC(=O)NCc1ccccc1)c(=O)n(C)c(=O)n2C,inactive: -10.7%,
Cc1cc(C)c2oc(-c3cccc(NC(=O)c4cc5ccccc5o4)c3)nc2c1,inactive: -10.4% [at 11.5 µM],
COc1cc(CCC(=O)NCc2ccc3c(c2)CCN3C(=O)c2cccc(C)c2)cc(OC)c1OC,inactive: -23.3%,
CC(C)n1c(SCC(=O)c2ccc(F)cc2)nc2c(sc3ccccc32)c1=O,inactive: -24.1%,
COc1ccccc1OCCCn1c(C2CC(=O)N(c3ccc(F)cc3)C2)nc2ccccc21 (stereo not drawn),inactive: -26.7%,
